Results on one molecule are retold here after patent US20140255405A1 (published 2014).

This experiment concerns the target T1, human IL-6 (human, UniProt P05231 30-212).
T1 construct: also called purified recombinant human IL6 (Peprotech catalogue number 200-06)
Briefly: SEC-HPLC of antibody incubated with equimolar human IL6; retention time of monomeric fraction 7.4 to 7.0 minutes. From the text:
In this example, three purified antibodies against human IL6 were used, each with a molecular weight of approximately 200 kDa and therefore presumed to be of similar hydrodynamic size. The antibodies used were the monospecific bivalent antibody D-5H5L, the bispecific tetravalent antibody DVD-45 and the tetravalent bispecific antibody Mab4-5H5L. The hydrodynamic size of the antibodies was compared either alone or in complex with IL6, using SEC-HPLC. For immune complex formation the purified antibodies were incubated for two hours with purified recombinant human IL6 (Peprotech catalogue number 200-06), by dropwise adding IL6 stock solution to the purified antibody to a final equimolar concentration compared to the calculated concentration of unique antibody binding sites. Following incubation, antibodies with and without IL6 were analysed at room temperature using a TOSOH G3000 SWXL column of 7.8 mm×30 cm, a mobile phase of 10% v/v 10×PBS buffer (Gibco catalogue number 70011), 3% v/v ethanol and 87% water, with a flow rate of 1 ml/min and detection wavelength of 280 nm. The results are illustrated in FIG. 5.
Background: In gel filtration, larger molecules generally elute earlier.

B1: D-5H5L (antibody, human IgG1, kappa)
heavy: EVQLVESGGGLVQPGGSLRLSCAASGFTFSSYAMSWIRQAPGKGLEWIGQISGSGGSTYYNDNVLGRFTISRDNSKNTLYLQMNSLRAEDTAVYYCARDSGYFDIWGQGTLVTVSS[human IgG1 constant region left out here]GSASGGSEVQLVESGGGLVQPGGSLRLSCAASGFSLSNYYVTWVRQAPGKGLEWVGIIYGSDETAYATSAIGRFTISRDNSKNTLYLQMNSLRAEDTAVYYCARDDSSDWDAKFNLWGQGTLVTVSSGGGGSGGGGSGGGGSAIQMTQSPSSLSASVGDRVTITCQASQSINNELSWYQQKPGKAPKLLIYRASTLASGVPSRFSGSGSGTDFTLTISSLQPDDFATYYCQQGYSLRNIDNAFGGGTKVEIK
light: DTQMTQSPSSLSASVGDRVTITCRASQSISSYLAWYQQKPGKAPKLLIYAASSLYSGVPSRFSGSGSGTDFTLTISSLQPEDFATYYCQQYSSLPYTFGQGTKVEIKRTVAAPSVFIFPPSDEQLKSGTASVVCLLNNFYPREAKVQWKVDNALQSGNSQESVTEQDSKDSTYSLSSTLTLSKADYEKHKVYACEVTHQGLSSPVTKSFNRGEC
notes: Monospecific bivalent control: Mab5 scFv (VH-VL) fused to the C-terminus of CH3 of a Dummy human IgG1 with germline-like variable domains; also called Mab D-5H5L
In the case of B1, the binding result is “binds”.
